Source: PMC6919601, “Identification of Plasmodium dipeptidyl aminopeptidase allosteric inhibitors by high throughput screening” (PLoS ONE, 2019)
Several values for one entry are separate records, joined by “and”; a condition that tells them apart may be missing. Identical values can stand only once. The campaign covered roughly 110,000 compounds. About 230 (0.21%) showed an effect of 50% or more. This is one part of the list.

Molecular target: DPAP1 (Plasmodium falciparum, UniProt Q8IIJ9)
Test: primary screen, percent inhibition; read by cleavage of a fluorogenic dipeptide substrate; higher = more effect of the substance
Design: species or system P. falciparum D10 trophozoite lysates; single well
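Further: 30 min substrate incubation versus DMSO and 10 µM JCP410 controls.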

Chain of DPAP1 (Q8IIJ9 whole entry, looked up): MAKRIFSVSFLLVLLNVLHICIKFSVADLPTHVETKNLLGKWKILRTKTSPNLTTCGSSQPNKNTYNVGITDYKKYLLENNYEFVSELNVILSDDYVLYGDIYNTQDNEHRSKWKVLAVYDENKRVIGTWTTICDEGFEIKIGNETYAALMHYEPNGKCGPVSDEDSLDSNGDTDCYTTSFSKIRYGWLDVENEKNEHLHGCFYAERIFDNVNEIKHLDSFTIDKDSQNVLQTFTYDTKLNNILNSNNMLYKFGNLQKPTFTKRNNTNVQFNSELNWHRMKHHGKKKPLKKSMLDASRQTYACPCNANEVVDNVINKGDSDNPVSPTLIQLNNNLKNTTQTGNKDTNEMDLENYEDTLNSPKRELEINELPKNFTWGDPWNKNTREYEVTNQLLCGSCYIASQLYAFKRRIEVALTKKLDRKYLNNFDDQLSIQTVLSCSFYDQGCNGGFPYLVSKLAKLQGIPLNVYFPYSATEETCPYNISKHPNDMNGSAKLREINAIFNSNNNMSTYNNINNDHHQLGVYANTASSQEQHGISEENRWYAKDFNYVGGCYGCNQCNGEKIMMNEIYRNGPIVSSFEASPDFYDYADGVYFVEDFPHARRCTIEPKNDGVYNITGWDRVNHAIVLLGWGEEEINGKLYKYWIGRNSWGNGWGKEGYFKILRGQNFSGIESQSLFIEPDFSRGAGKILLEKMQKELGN

Structure (SMILES) | % Inhibition @ 10 uM
CCO/C(O)=C1/C(C)=Nc2ncnn2C1c1cccnc1 (stereo not drawn) | -1.62%
CCOc1ccc(NC2OC(CO)C(O)C(O)C2O)c([N+](=O)[O-])c1 (stereo not drawn) | -0.216%
Cc1ccc2cc3cc(C(=O)N4CCN(C(=O)c5ccco5)CC4)oc3nc2c1 | -1.54%
COc1cccc(CNCCc2cccc(Cl)c2)c1OC | -3.75%
Cc1c(/N=C(\S)NCCO)c(=O)n(-c2ccccc2)n1C | -6.22%
Cc1nn(CCCC(=O)N2CCc3ccccc3C2)c(=O)c2c1sc1ccccc12 | -4.09%
COc1ccc(OC)c(C2CC(c3ccc(C)cc3)Nc3ncnn32)c1 (stereo not drawn) | -7.08%
CNC(=O)c1ccc2nc(N3CCC(C)CC3)sc2c1 | 1.03%
CCOC(=O)N1CCN(C(=O)C2CCN(c3nnc(-n4cccc4)s3)CC2)CC1 | 2.56%
O=C(CCc1ccccc1)Nc1ccc(S(=O)(=O)Nc2nccs2)cc1 | 0.408%
COc1cc(C(=O)Nc2nnc(Cc3ccccc3)s2)cc(OC)c1OC | 2.92%
COCCNC(=O)CCC(=O)n1ncc2ccccc21 | -2.85%
CCC(C)c1ccc(NC(=O)c2cccs2)cc1 (stereo not drawn) | 0.247%
Cc1ccccc1-c1nc(CSCC(=O)NC2CCCCCC2)c(C)o1 | 8.55%
O=C1CCn2nc(-c3ccccc3)cc2N1 | -1.03%
N=C1SC2CS(=O)(=O)CC2N1Cc1ccccc1 (stereo not drawn) | 0.558%
Cc1cc(C)c2c(-n3cccc3)c(C(=O)NCc3ccccn3)sc2n1 | 3.87%
O=C(CN1C(=O)C2CC=C(Cl)CC2C1=O)N1CCCC1 (stereo not drawn) | 2.16%
Brc1ccc(-c2noc(-c3cccs3)n2)cc1 | -1.74%
Nc1sc2c(c1C(=O)Nc1ccc(Cl)cc1)CCCCC2 | -1.28%
COc1ccc2ncc(S(=O)(=O)c3ccc(Cl)cc3)c(N3CCCCC3)c2c1 | -4.34%
Cc1oc2cc3oc(=O)c(CCC(=O)O)c(C)c3cc2c1C | 2.01%

Structure (SMILES) | % Inhibition @ 10 uM
COc1ccccc1CNc1nc2nc(C)c(C)c(O)n2n1 | -0.671%
Cc1nnc(N2CCCC(C(=O)NCCc3ccccc3)C2)c2nn(-c3ccc(Cl)cc3)c(C)c12 (stereo not drawn) | 1.74%
Cn1c(=O)c2c(nc(NCc3cccnc3)n2Cc2cccc(C(F)(F)F)c2)n(C)c1=O | 1.9%
O=[N+]([O-])c1ccccc1S(=O)(=O)N1CCC(Cc2ccccc2)CC1 | -0.712%
Cc1nn(CC(=O)NC2CCCC(C)C2C)c(=O)c2cc3cc(F)ccc3n12 (stereo not drawn) | -5.32%
COc1ccc(C(=O)N2CCN(C3CCCC3)CC2)cc1 | 3.17%
N#Cc1c(N/C=C2/C(=O)NC(=O)N(c3ccccc3)C2=O)sc2c1CCCC2 | -4.41%
COc1ccc(S(=O)(=O)Nc2cc(C(F)(F)F)ccc2Cl)cc1 | -1.22%
Cc1ccc2[nH]c(SCC(=O)Nc3ccc4c(c3)OCO4)nc2c1C | 4.09% and -5.6%
CCc1cccc(C)c1NC(=O)CN(c1ccc(Cl)cc1)S(C)(=O)=O | -10.2%
CCOc1ccc(C2C(C#N)=C(N)N(c3cccc(C)c3)C3=C2C(=O)CCC3)cc1 (stereo not drawn) | -2.07%
CC(=O)Nc1ccc(C(=O)Nc2ccc(F)cc2)cc1 | -3.13%
OCC1CCCN(C2CCCCCC2)C1 (stereo not drawn) | -0.0908%
Cc1ccc(OCC(O)CN2CCN(Cc3ccc4c(c3)OCO4)CC2)cc1C (stereo not drawn) | -4.65%
C=CCOC(=O)c1c2c(n3cc4ccccc4cc13)C(=O)c1ccccc1C2=O | 3.87%
CCC(CO)NCC#Cc1ccccc1 (stereo not drawn) | -6.92%
COc1ccc(CCNC(=O)CSC2=NS(=O)(=O)c3ccccc32)cc1OC | -12.1%
OC(CNCc1ccco1)c1ccccc1 (stereo not drawn) | -6.74%
C=CCn1c2ccccc2n2c(C(C)=O)c(-c3ccccc3)nc12 | -2.91%
CCCCNC(=O)CCCn1c(=O)c2cccn2c2cccnc21 | 2.57%
CC(CC1NCCC2(O)CCCCC12)c1ccccc1 (stereo not drawn) | 1.54%
NC(=O)Cn1ccn(Cc2ccc(Cl)cc2)c(=O)c1=O | -3.49%

Structure (SMILES) | % Inhibition @ 10 uM
CCc1[nH]c2ccccc2c1C(C)c1cccnc1 (stereo not drawn) | -4.49%
c1ccc(-c2nnc(CN3CCN(C(c4ccccc4)c4ccccc4)CC3)o2)cc1 | 3.74%
Cc1ccccc1C1CC(c2ccc(Br)cc2)Nc2ncnn21 (stereo not drawn) | 3.32%
Cc1ccc(-n2ncc(C(=O)NCCN3CCCC3)c2C2CCN(C(=O)OC(C)(C)C)CC2)c(C)c1 | -3.47%
COc1ccc(N(CC(=O)Nc2ccccc2C)S(C)(=O)=O)cc1Cl | -3.25%
CCOc1ccc(-c2cc(C(=O)NCc3ccco3)[nH]n2)cc1 | 3.47%
COC(=O)c1cccc(Oc2nc(N3CCOCC3)nc(N3CCOCC3)n2)c1 | -4.49%
C=C(C)CSC1=C(C#N)C(c2ccc(C)cc2)CC(=O)N1 (stereo not drawn) | 0.121%
CCc1nn(C(CC)C(=O)NCC(C)c2ccccc2)c(=O)c2cc3occc3n12 (stereo not drawn) | -3.79%
CCN(CC)C(=O)c1c(-c2ccccc2)noc1C | -0.436%
COc1ccc(/C=C2/SC(N3CCCCCC3)=NC2=O)cc1OC | 1.96%
O=C(NCCC1=CCCCC1)c1cncc(Br)c1 | -5.26%
Cc1cccc(CN2CCN(C)CC2)c1 | 1.48%
COc1cccc(C2NCCc3[nH]cnc32)c1 (stereo not drawn) | 6.96%
COC(=O)C(NC(=O)Nc1ccccc1)C(C)C (stereo not drawn) | 5.2%
CCOc1ccc(C2C(C#N)=C(N)Oc3[nH]nc(C(C)(C)C)c32)cc1OCC (stereo not drawn) | -4.48%
Oc1cc(Cc2ccccc2)cnc1CN1CCOCC1 | -3%
CCCCCC(C)NC(=O)c1ccc(Br)o1 (stereo not drawn) | 5.69%
COc1ccc(-c2c(C(C)=O)c(C)nc3sc4c(=O)n(-c5ccc(C)cc5)cnc4c23)cc1 | -10.7%
CC(C)c1ccc(NS(=O)(=O)c2ccc(Cl)cc2)cc1 | -0.197%
O=C(O)CC(NC(=O)C(c1ccccc1)c1ccccc1)c1ccc(F)cc1 (stereo not drawn) | 1.7%
CCOc1ccc(C(=O)Nc2ccc(CN3CCOCC3)cc2)cc1Br | 2.17%
